These results are taken from PubChem BioAssay AID463173 (ICCB-Longwood Screening Facility, Harvard Medical School, 2010).

SMILES strings stand for the structures. Screen size: about 52,000 compounds; about 4,300 (8.3%) were called active. Cut-off read from the data, not from the text of the source: active = survival mostly below about 52% (no sharp cut-off); inactive = mostly above about 56%. The list shows a part of the results.

The subject of the experiment is DeltatarO mutant. Kind of experiment: S. aureus survival, RN4220 and DeltatarO strains – OD600, teichoic acid synthesis inhibitors, primary screen (AID 463173). The settings on record: S. aureus RN4220 wild type/DeltatarO growth, OD600, 18 h, hits give low values, screened at 18.75 µg/mL (by protocol).
Turning to `Cc1nc2nc(NCc3ccc(Br)cc3)[nH]n2c(=O)c1Cc1ccccc1`, the survival was active: 39%.

Regarding `CN(C)c1ccc(CNC(=O)c2ccc3nc(Cc4ccccc4)oc3c2)cc1`, the survival is inactive: 98%.

As to `CSc1ccc(CCNC(=O)c2csc3c2CCCCC3)cc1`, the survival is inactive: 63%.

`CC(C)CSc1n[nH]c(N)n1`: the survival is inactive: 97%.

For the compound `O=C(O)CCn1ccc2cc(S(=O)(=O)N3CCCCCC3)ccc21`, the survival is inactive: 80%.

Regarding `Cc1cc(C)c(NC(=O)C(=O)NCCc2csc(-c3ccc(F)cc3)n2)c(C)c1`, the survival was inactive: 67%.

In the case of `CCOC(=O)c1c(NC(C)=O)c2c3c(sc2n1Cc1cc(C)ccc1C)CCCC3`, the survival is inactive: 98%.

For the compound `CCOc1ccccc1NC(=O)Cn1c(=O)n(Cc2ccco2)c(=O)c2sc3ccccc3c21`, the survival is inactive: 66%.

Regarding `CCCCC(CC)CNC(=O)CCCCCn1c(=O)[nH]c2ccsc2c1=O` (stereo not drawn), the survival was inactive: 72%.

For `O=C(c1ccc2c(c1)N(Cc1ccc(Cl)cc1)C(=O)c1ccccc1S2(=O)=O)N1CCOCC1`, the survival is inactive: 96%.

Regarding `CCOc1ccc2[nH]c(=O)c(-c3nc4cccc(C)n4c3NCc3ccco3)cc2c1`, the survival was inactive: 107%.

On to `CCCC(=O)Nc1ccc2oc(-c3ccc(O)c(Br)c3)nc2c1`, for which the survival is inactive: 59%.

Turning to `CC(C)c1ccc(NC(=O)c2ccc(=O)n(Cc3ccccc3)c2)cc1`, the survival was inactive: 89%.

Consider `CCc1ccc(-n2c(=O)c3ccccc3n(Cc3ccccc3C#N)c2=O)cc1`, for which the survival is inactive: 80%.

On to `COc1cccc(C2C(C(N)=O)=C(C)Nc3ncnn32)c1` (stereo not drawn), for which the survival was inactive: 71%.

Consider `O=C(O)Cn1ncc2ccccc2c1=O`, for which the survival was inactive: 101%.

As for `Fc1ccc(N2CCN(c3ncnc4onc(-c5ccc(Cl)cc5)c34)CC2)cc1`, the survival was inactive: 65%.

With `COc1ccc(OC)c(NC(=O)C2=C(C)C(=O)OC23CCN(C(C)C)CC3)c1`, the survival is active: 32%.

Regarding `O=C(CSc1nc2c(oc3ccccc32)c(=O)n1-c1ccccc1)Nc1ccc(F)c(Cl)c1`, the survival is inactive: 86%.

Regarding `CC(C)(C)c1ccc(C(=O)Nc2nnc3n2CCS3)cc1`, the survival is inactive: 80%.

In the case of `Cc1oc2c(C)c3oc(=O)c(CCC(=O)N4CCCCC4)c(C)c3cc2c1C`, the survival was inactive: 89%.

Turning to `Cc1cc2oc(C(=O)Nc3ccc(S(=O)(=O)N(C)c4ccccc4)cc3)cc(=O)c2cc1C`, the survival was inactive: 51%.

Take `COc1cc(-c2nnc(SCCOc3ccccc3)o2)cc(OC)c1OC`: the survival was inactive: 76%.

As to `CCOC(=O)Cn1c(=O)oc2cc(S(=O)(=O)Nc3ccccc3F)ccc21`, the survival is inactive: 67%.

For the compound `CCOC(=O)c1c(SCC(=O)Nc2cccc(C)c2C)nc(=O)[nH]c1C`, the survival was inactive: 67%.

As for `CCn1c(C)c(C)c2cc(C(=O)NCCc3cc(OC)ccc3OC)ccc21`, the survival is inactive: 98%.

As to `Cc1oc2ncn(CC(C)C)c(=O)c2c1C(=O)NCCCN(C)Cc1ccccc1`, the survival is inactive: 74%.

In the case of `O=C(Nc1cccc(C(F)(F)F)c1)C1CCCN(S(=O)(=O)c2cccc3nonc23)C1` (stereo not drawn), the survival is inactive: 91%.

Take `CCOc1ccc(CNC(=O)c2ccc3c(c2)N(Cc2ccccc2)CCS3)cc1`: the survival is inactive: 64%.

Turning to `NC(Cc1ccccc1)C(O)(c1ccccc1)c1ccccc1` (stereo not drawn), the survival is inactive: 96%.

Regarding `COc1ccc2[nH]cc(NC(=O)N3CCN(C(=O)OC(C)(C)C)CC3)c(=O)c2c1`, the survival was inactive: 96%.

`CCOc1ccc(S(=O)(=O)N2CCC(n3c(C)nc4cccnc43)CC2)cc1`: the survival was inactive: 73%.

`O=C(Cn1ncc2c(Cl)cccc21)NCc1cccc(F)c1`: the survival was inactive: 112%.

Regarding `COc1ccc(S(=O)(=O)N(CC(=O)Nc2ccc3c(c2)OCO3)c2ccccc2)cc1`, the survival is inactive: 50%.

Take `COc1ccc(-c2noc(-c3ccc(NCCc4ccccc4)c([N+](=O)[O-])c3)n2)cc1`: the survival is active: 42%.

Regarding `O=C(Cn1cc(S(=O)(=O)Cc2ccccc2Cl)c2ccccc21)Nc1ccc(F)cc1F`, the survival was inactive: 86%.

`Cc1noc(C)c1C(=O)N(c1ccccc1)C(C(=O)NC1CCCC1)c1ccc(F)cc1` (stereo not drawn): the survival is inactive: 86%.

As to `CCc1ccc(S(=O)(=O)c2cn(Cc3ccc(OC)cc3)c3cc(OC)c(OC)cc3c2=O)cc1`, the survival is inactive: 73%.

For `O=C(COc1ccc(Br)cc1)Nc1ccc(C(=O)OC2CCCCC2)cc1`, the survival is inactive: 72%.

For `COc1ccc(NC(=O)CCc2c(C)nc3cc(-c4cccc(F)c4)nn3c2C)cc1Cl`, the survival is inactive: 129%.

`O=C(Nc1cccnc1)C(Cc1ccccc1)N1C(=O)c2ccccc2C1=O` (stereo not drawn): the survival was inactive: 78%.

For `CCOc1ccc(NC(=O)Cn2c(=O)n(-c3ccccc3)c(=O)c3c4c(sc32)CCCC4)cc1`, the survival was active: 90%.

In the case of `CCCCN(c1ccccc1)c1ncnc2c1cnn2-c1cccc(C)c1`, the survival was inactive: 78%.

Take `CC(=O)Nc1ccc2nc(SCCOc3ccccc3Cl)sc2c1`: the survival is active: 3%.

`CCOC(=O)c1c(C)[nH]c(C)c1S(=O)(=O)N(C)CC(=O)Nc1ccc(C)c(F)c1`: the survival is inactive: 75%.

`CCc1ccccc1NC(=O)c1ccc2c(c1)c(C)c(C)n2Cc1ccccc1`: the survival is inactive: 89%.

Regarding `Cc1cc(C)c(NC(=O)C2CCCN(C(=O)c3cnn(-c4ccccc4)c3-n3cccc3)C2)c(C)c1` (stereo not drawn), the survival is inactive: 59%.

As to `COC(=O)c1cc2sccc2n1Cc1nc(-c2ccc(C)cc2)oc1C`, the survival was active: 28%.

In the case of `CN(C(=O)CSc1nc2ccccc2n1CC(=O)N(C)C1CCCCC1)c1ccc(F)cc1`, the survival is inactive: 108%.

`COc1ccccc1-c1c(C)nn2c(N3CCN(c4ccc(F)cc4)CC3)cc(C)nc12`: the survival was inactive: 81%.

On to `Clc1ccc(C2NCCS2)cc1` (stereo not drawn), for which the survival was inactive: 101%.

For the compound `CC(C)n1c(=O)c2oc3ccccc3c2n(CC(=O)Nc2ccccc2Cl)c1=O`, the survival was inactive: 60%.

Regarding `COC(=O)c1c(Oc2ccc(Br)cc2)nnc(-c2ccccc2)c1-c1ccccc1`, the survival was inactive: 85%.

As for `Cc1c(Cl)cccc1NC(=O)Cn1c(=O)n(Cc2ccco2)c(=O)c2oc3ccccc3c21`, the survival is inactive: 82%.

In the case of `O=C1CC(c2ccc(Br)cc2)c2c(ccc3ccccc23)N1` (stereo not drawn), the survival is active: 32%.

Take `CCc1nc2nc(C)cc(Nc3ccc(F)c(Cl)c3)n2n1`: the survival is inactive: 65%.

Regarding `Cc1ccc(CN2CCC(CNC(=O)Nc3cccc(C)c3C)C2)cc1` (stereo not drawn), the survival was inactive: 112%.

`COc1cc(OC)c2c(C)c(CC(=O)N3CCCCC3)c(=O)oc2c1`: the survival was inactive: 47%.
